The text below walks through data of ChEMBL document CHEMBL4888484, “Replenishing the malaria drug discovery pipeline: Screening and hit evaluation of the MMV Hit Generation Library 1 (HGL1) against asexual blood stage Plasmodium falciparum ,using a nano luciferase reporter read-out” (2022).

Each structure is given as a SMILES string. About 540 (0.36%) of roughly 150,000 compounds showed an effect of 50% or more. This is one part of the list.

The test system of this test is Plasmodium falciparum. Description: Primary screen in NF54 nanoGlo assay, in single point, at 2uM, 72h; a lower Z score goes with more inhibition. It is filed as functional, Erythrocyte. The following applies: timepoint 72 hour.
For the compound `Cc1cc(-c2nc(-c3cnn(C(C)(C)C)c3)no2)n[nH]1`, the % Inhibition (in general, the drop in the measured response relative to a control, in per cent) is recorded as -5% and the Z score turned out to be 0.75.

As to `COc1ccc(-c2cnn([C@@H]3CCCCO3)c2)c(OC)n1`, the “% Inhibition” value is listed as -8% and the Z score is 1.13.

Turning to `O=C(C1CCC1)N1CCC2(CC1)N[C@@H](Cc1ccccc1)C(=O)N2CCc1ccccn1`, the “% Inhibition” value is listed as -4% and the Z score was 0.44.

For `CS(=O)(=O)N[C@H]1CCN(CCc2ccc(F)c(F)c2)C1`, the “% Inhibition” value is recorded as -15% and the Z score worked out at 1.33.

In the case of `N#Cc1csc(C(=O)N2CCC(NC(=O)c3ccncc3)CC2)c1`, the “% Inhibition” value is given as -14% and the Z score is on record as 2.16.

Take `C=CCO[C@@H](C)C(=O)Nc1cnccc1N1CCCCC1`: the “% Inhibition” value came out at 2% and the Z score was -0.22.

For the compound `CC(C)c1noc(-c2ccnc(NC3CCC(C(F)(F)F)CC3)c2)n1` (centres undefined), the “% Inhibition” value is -14% and the Z score came out at 1.7.

In the case of `O=C(Nc1ccc(F)cc1)NC1CCOC2(CCOC2)C1` (centres undefined), the “% Inhibition” value was -4% and the Z score is 0.5.

Regarding `O=C(Cc1cccc(F)c1)N1CCCC12CCC2`, the “% Inhibition” value was -2% and the Z score is recorded as 0.33.

`C[C@@H]1CCC[C@H](C)N1CC(=O)NCCn1ccnc1`: the “% Inhibition” value is on record as -7% and the Z score is on record as 1.04.

Regarding `NC(=O)c1ncc(NS(=O)(=O)c2ccc3c(c2)CCCC3)s1`, the “% Inhibition” value was -9% and the Z score was determined as 1.16.

`CN1CCN(Cc2ccc3ccccc3c2)CCC1=O`: the “% Inhibition” value is given as -10% and the Z score was 1.38.

Turning to `CCOc1cncc(N(C)Cc2ncnn2C)n1`, the “% Inhibition” value is listed as 0% and the Z score is given as -0.02.

As to `CC(C)c1cc(CN(CCN(C)C)C[C@H]2CCCO2)on1`, the “% Inhibition” value is listed as 3% and the Z score is recorded as -0.53.

For `O=C(NS(=O)(=O)C1CC2CCC1CC2)C1CC1c1ccc(F)c(F)c1` (centres undefined), the “% Inhibition” value is given as -6% and the Z score is listed as 0.95.

In the case of `Cc1ccc(Cn2cccc2C(=O)C(=O)Nc2ccc(F)c(F)c2)cc1C`, the “% Inhibition” value was -15% and the Z score amounted to 1.43.

Take `O=S(=O)(CCCc1cn[nH]c1)Cc1cc(Cl)ccc1Cl`: the “% Inhibition” value came to 2% and the Z score was -0.4.

For `COc1cc(-c2ccc(C(N)=O)o2)c(Cl)cn1`, the “% Inhibition” value was -2% and the Z score was 0.32.

On to `Cc1ccc(OCc2nc(CC3CCN(C)CC3)nn2CC(=O)O)cc1C`, for which the “% Inhibition” value came to 3% and the Z score is given as -0.35.

For the compound `COCc1ccccc1S(=O)(=O)Nc1nc([C@H](C)OC)ns1`, the “% Inhibition” value is recorded as -4% and the Z score worked out at 0.51.

In the case of `COc1ccc(N2C(=O)[C@@H]3CCCN3[C@H]2c2ccc(Cl)cc2)cc1Cl`, the “% Inhibition” value is recorded as -4% and the Z score is recorded as 0.58.

On to `CCCC(O)(CCC)CC(=O)N1CCN(C(=O)OCC)CC1`, for which the “% Inhibition” value was -7% and the Z score stood at 0.63.

As to `CC(C)c1noc(CN(C)[C@@H](C)c2cccs2)n1`, the “% Inhibition” value is listed as -13% and the Z score turned out to be 1.28.

As to `Cc1ccc(-c2csc(-c3cnccn3)n2)cc1`, the “% Inhibition” value was -2% and the Z score came to 0.33.

`CCc1nccn1CC(=O)Nc1cc(C)nn1C`: the “% Inhibition” value is on record as 31% and the Z score is reported as -4.46.

Regarding `O=C(Nc1cccc(Cl)c1)C1CCN(c2nccc3sccc23)CC1`, the “% Inhibition” value is -20% and the Z score was determined as 1.94.

As to `Fc1ccc2ncnc(Oc3ccc(-n4cncn4)cc3)c2c1`, the “% Inhibition” value is -10% and the Z score is recorded as 1.15.

On to `Fc1ccc2oc(CN3CCN(c4ccccn4)CC3)nc2c1`, for which the “% Inhibition” value is -8% and the Z score stood at 1.58.

For `Cc1ccc(-n2nc(CO)c(C(=O)NCCCc3ccccc3)n2)cc1C`, the “% Inhibition” value is -13% and the Z score is listed as 2.37.

For the compound `O=C(COC[C@H]1CCCO1)N1c2ccccc2Oc2ccccc21`, the “% Inhibition” value is 18% and the Z score is recorded as -3.18.

As to `Cc1nccc(CCC(=O)N2CC3(CCOC3)C2)n1`, the “% Inhibition” value is -4% and the Z score was 0.58.

Consider `Cc1ccc(C(=O)NCC(C)(C)N2CCOCC2)o1`, for which the “% Inhibition” value is listed as -8% and the Z score is reported as 1.22.

Regarding `Cc1ccc(CNC(=O)CCc2c(C)nn(-c3cc(N4CCCC4)ncn3)c2C)o1`, the “% Inhibition” value is recorded as -10% and the Z score was determined as 2.04.

With `CCOc1ccccc1CN1CCC(Cn2c(C)cnc2-c2cccnc2)CC1`, the “% Inhibition” value is listed as -8% and the Z score was 1.11.

For `FC(F)(F)c1ccc(Cl)c(-c2nn3c(Cc4ccccn4)nnc3s2)c1`, the “% Inhibition” value is recorded as -4% and the Z score was 0.49.

On to `CC(C)(C)NC(=O)NC1CCCC(O)C1` (centres undefined), for which the “% Inhibition” value was -3% and the Z score stood at 0.52.

Take `CC(=O)N1CCCN(C(=O)c2cnc3ccccn23)CC1`: the “% Inhibition” value was determined as 6% and the Z score was -0.53.

Consider `Cc1ccc(C(=O)N2CC[C@H](OCC3CC3)C2)c(C)c1`, for which the “% Inhibition” value is reported as -9% and the Z score is listed as 1.4.

Regarding `Cc1cccc(OC2CCN(C(=O)CN3C(=O)CCC3=O)CC2)n1`, the “% Inhibition” value is on record as -12% and the Z score is listed as 2.35.

Regarding `CC(C)[C@@H]1N(C(=O)C2CCOCC2)CC12CCCCC2`, the “% Inhibition” value is on record as 0% and the Z score came out at 0.02.

On to `O=C(c1cnc(-c2cccnc2)s1)N1CCC[C@H]1c1ncon1`, for which the “% Inhibition” value is on record as -9% and the Z score worked out at 1.34.

With `Cc1ccoc1C(=O)NC[C@H]1CCN(Cc2nc(C(C)C)cs2)C1`, the “% Inhibition” value was -10% and the Z score was 1.62.

As to `O=c1cc(CN2CCc3c(Cl)cc(Cl)cc3C2)[nH]c2ccnn12`, the “% Inhibition” value was -12% and the Z score is listed as 2.21.

On to `O=C(Nc1cccc(S(=O)(=O)NC2=NCCC2)c1)c1cc(Cl)c2c(c1)OCCCO2`, for which the “% Inhibition” value is listed as -11% and the Z score is reported as 1.51.

For the compound `CC(C)(C)OC(=O)NCc1cn(-c2cccc(CN)c2)nn1`, the “% Inhibition” value is on record as -4% and the Z score amounted to 0.36.

`CN(Cc1nccs1)C(=O)c1cn2c(n1)CCC2`: the “% Inhibition” value is given as -16% and the Z score is listed as 1.93.

As for `CCC(=O)N1CCN(C(=O)c2cncc(Br)c2)C1`, the “% Inhibition” value is on record as -16% and the Z score is listed as 2.95.

Turning to `COc1ccc(-c2cc(C(=O)OCc3c(F)cccc3Cl)c3ccccc3n2)cc1`, the “% Inhibition” value is -4% and the Z score is 0.49.

Turning to `COC[C@H](C)CS(=O)(=O)N(C)C1(C(=O)OC)CC(OC)C1` (some centres undefined), the “% Inhibition” value is reported as -2% and the Z score is reported as 0.49.

For the compound `COCc1ccsc1C(=O)N(C)C[C@H]1COc2ccccc2O1`, the “% Inhibition” value was -13% and the Z score is 1.93.

In the case of `CCNC(=O)N1CCc2nc(N3CCN(C)CC3)nc(Oc3cccc(C)c3)c2C1`, the “% Inhibition” value is recorded as 7% and the Z score is reported as -1.19.

Consider `CC1CC1C(=O)N1CCN(c2nn3cc(C(C)(C)C)nc3s2)CC1` (centres undefined), for which the “% Inhibition” value is on record as 16% and the Z score is -2.17.

For `Cc1noc([C@H]2CCN(c3nc(C4CCC4)no3)C2)n1`, the “% Inhibition” value is -12% and the Z score amounted to 2.39.

On to `O=C(Nc1cccs1)N1Cc2cncnc2C1`, for which the “% Inhibition” value came out at 1% and the Z score was -0.09.

On to `Cc1ccc2ccc3cc(C(=O)NCc4ccc(F)cc4)[nH]c3c2n1`, for which the “% Inhibition” value is 2% and the Z score is recorded as -0.38.

Turning to `COc1cc2c(cc1OC)N(CN1CCN(c3ccccc3)CC1)C(=O)C2=O`, the “% Inhibition” value turned out to be 6% and the Z score was -0.56.

Regarding `N[C@H]1CCN(c2cccc3ccccc23)C1`, the “% Inhibition” value was -1% and the Z score is listed as 0.1.
